# Some of the results follow.
# B1: ABA (Agaricus bisporus), Q00022 (protein)
# chain: MTYTISIRVYQTTPKGFFRPVERTNWKYANGGTWDEVRGEYVLTMGGSGTSGSLRFVSSDTDESFVATFGVHNYKRWCDIVTNLTNEQTALVINQEYYGVPIRDQARENQLTSYNVANAKGRRFAIEYTVTEGDNLKANLIIG
# How the values were obtained:
# Assay in all cases: glycan array binding signal (z-score within array); higher = stronger binding
# Conditions in all cases: glycan notation: IUPAC condensed, linker removed
# [1] = biological target: Gal(b1-4)GlcNAc(b1-3)Gal(b1-4)GlcNAc(b1-2)[Gal(b1-4)GlcNAc(b1-3)Gal(b1-4)GlcNAc(b1-6)]Man(a1-6)[Gal(b1-4)GlcNAc(b1-3)Gal(b1-4)GlcNAc(b1-2)Man(a1-3)]Man(b1-4)GlcNAc(b1-4)[Fuc(a1-6)]GlcNAc
# Summary of the method: (§1)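 The binding signal is a Z-score computed within each array and averaged over linkers. Arrays of the same protein sequence at different concentrations or buffers were also averaged together. Data originate from 3228 arrays in the Consortium for Functional Glycomics database, kept only where the protein sequence was available.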
# [2] = biological target: Gal(b1-4)GlcNAc(b1-3)Gal(b1-4)GlcNAc(b1-3)Gal(b1-4)GlcNAc
# Summary of the method: as §1
# [3] = biological target: Gal(b1-4)GlcNAc(b1-3)Gal(b1-4)GlcNAc(b1-3)Gal(b1-4)GlcNAc(b1-2)Man(a1-3)[Gal(b1-4)GlcNAc(b1-3)Gal(b1-4)GlcNAc(b1-3)Gal(b1-4)GlcNAc(b1-2)Man(a1-6)]Man(b1-4)GlcNAc(b1-4)GlcNAc
# Summary of the method: as §1
# [4] = biological target: Gal(b1-4)GlcNAc(b1-3)Gal(b1-4)GlcNAc(b1-3)Gal(b1-4)GlcNAc(b1-2)Man(a1-3)[Gal(b1-4)GlcNAc(b1-3)Gal(b1-4)GlcNAc(b1-3)Gal(b1-4)GlcNAc(b1-2)Man(a1-6)]Man(b1-4)GlcNAc(b1-4)[Fuc(a1-6)]GlcNAc
# Summary of the method: as §1
# [5] = biological target: Gal(b1-4)GlcNAc(b1-3)Gal(b1-4)GlcNAc(b1-3)Gal(b1-4)GlcNAc(b1-2)[Gal(b1-4)GlcNAc(b1-3)Gal(b1-4)GlcNAc(b1-3)Gal(b1-4)GlcNAc(b1-6)]Man(a1-6)[Gal(b1-4)GlcNAc(b1-3)Gal(b1-4)GlcNAc(b1-3)Gal(b1-4)GlcNAc(b1-2)Man(a1-3)]Man(b1-4)GlcNAc(b1-4)[Fuc(a1-6)]GlcNAc
# Summary of the method: as §1
# [6] = biological target: Gal(b1-4)GlcNAc(b1-3)Gal(b1-4)GlcNAc(b1-3)Gal(b1-4)GlcNAc(b1-3)Gal(b1-4)GlcNAc(b1-2)Man(a1-3)[Gal(b1-4)GlcNAc(b1-3)Gal(b1-4)GlcNAc(b1-3)Gal(b1-4)GlcNAc(b1-3)Gal(b1-4)GlcNAc(b1-2)Man(a1-6)]Man(b1-4)GlcNAc(b1-4)GlcNAc
# Summary of the method: as §1
# [7] = biological target: Gal(b1-4)GlcNAc(b1-3)Gal(b1-4)GlcNAc(b1-3)Gal(b1-4)GlcNAc(b1-3)Gal(b1-4)GlcNAc(b1-2)Man(a1-3)[Gal(b1-4)GlcNAc(b1-3)Gal(b1-4)GlcNAc(b1-3)Gal(b1-4)GlcNAc(b1-3)Gal(b1-4)GlcNAc(b1-2)Man(a1-6)]Man(b1-4)GlcNAc(b1-4)[Fuc(a1-6)]GlcNAc
# Summary of the method: as §1
# [8] = biological target: Gal(b1-4)GlcNAc(b1-3)Gal(b1-4)GlcNAc(b1-3)Gal(b1-4)GlcNAc(b1-3)Gal(b1-4)GlcNAc(b1-2)[Gal(b1-4)GlcNAc(b1-3)Gal(b1-4)GlcNAc(b1-3)Gal(b1-4)GlcNAc(b1-3)Gal(b1-4)GlcNAc(b1-6)]Man(a1-6)[Gal(b1-4)GlcNAc(b1-3)Gal(b1-4)GlcNAc(b1-3)Gal(b1-4)GlcNAc(b1-3)Gal(b1-4)GlcNAc(b1-2)Man(a1-3)]Man(b1-4)GlcNAc(b1-4)[Fuc(a1-6)]GlcNAc
# Summary of the method: as §1
# [9] = biological target: Gal(b1-4)GlcNAc(b1-3)Gal(b1-4)GlcNAc(b1-3)Gal(b1-4)GlcNAc(b1-3)Gal(b1-4)GlcNAc(b1-3)Gal(b1-4)GlcNAc(b1-2)Man(a1-3)[Gal(b1-4)GlcNAc(b1-3)Gal(b1-4)GlcNAc(b1-3)Gal(b1-4)GlcNAc(b1-3)Gal(b1-4)GlcNAc(b1-3)Gal(b1-4)GlcNAc(b1-2)Man(a1-6)]Man(b1-4)GlcNAc(b1-4)GlcNAc
# Summary of the method: as §1
# [10] = biological target: Gal(b1-4)GlcNAc(b1-3)Gal(b1-4)GlcNAc(b1-3)Gal(b1-4)GlcNAc(b1-3)Gal(b1-4)GlcNAc(b1-3)Gal(b1-4)GlcNAc(b1-2)Man(a1-3)[Gal(b1-4)GlcNAc(b1-3)Gal(b1-4)GlcNAc(b1-3)Gal(b1-4)GlcNAc(b1-3)Gal(b1-4)GlcNAc(b1-3)Gal(b1-4)GlcNAc(b1-2)Man(a1-6)]Man(b1-4)GlcNAc(b1-4)[Fuc(a1-6)]GlcNAc
# Summary of the method: as §1
# [11] = biological target: Gal(b1-4)GlcNAc(b1-3)Gal(b1-4)GlcNAc(b1-3)Gal(b1-4)GlcNAc(b1-3)Gal(b1-4)GlcNAc(b1-3)Gal(b1-4)GlcNAc(b1-2)[Gal(b1-4)GlcNAc(b1-3)Gal(b1-4)GlcNAc(b1-3)Gal(b1-4)GlcNAc(b1-3)Gal(b1-4)GlcNAc(b1-3)Gal(b1-4)GlcNAc(b1-6)]Man(a1-6)[Gal(b1-4)GlcNAc(b1-3)Gal(b1-4)GlcNAc(b1-3)Gal(b1-4)GlcNAc(b1-3)Gal(b1-4)GlcNAc(b1-3)Gal(b1-4)GlcNAc(b1-2)Man(a1-3)]Man(b1-4)GlcNAc(b1-4)[Fuc(a1-6)]GlcNAc
# Summary of the method: as §1
# [12] = biological target: Gal(b1-4)GlcNAc(b1-3)Gal(b1-4)GlcNAc(b1-3)Gal(b1-4)GlcNAc(b1-3)Gal(b1-4)GlcNAc(b1-3)Gal(b1-4)GlcNAc(b1-3)Gal(b1-4)GlcNAc(b1-2)Man(a1-3)[Gal(b1-4)GlcNAc(b1-3)Gal(b1-4)GlcNAc(b1-3)Gal(b1-4)GlcNAc(b1-3)Gal(b1-4)GlcNAc(b1-3)Gal(b1-4)GlcNAc(b1-3)Gal(b1-4)GlcNAc(b1-2)Man(a1-6)]Man(b1-4)GlcNAc(b1-4)GlcNAc
# Summary of the method: as §1
# [13] = biological target: Gal(b1-4)GlcNAc(b1-3)Gal(b1-4)GlcNAc(b1-3)GalNAc
# Summary of the method: as §1
# [14] = biological target: Gal(b1-4)GlcNAc(b1-3)Gal(b1-4)GlcNAc(b1-3)[Gal(b1-4)GlcNAc(b1-3)Gal(b1-4)GlcNAc(b1-6)]GalNAc
# Summary of the method: as §1
# [15] = biological target: Gal(b1-4)GlcNAc(b1-3)Gal(b1-4)GlcNAc(b1-6)[Gal(b1-3)]GalNAc
# Summary of the method: as §1
# [16] = biological target: Gal(b1-4)GlcNAc(b1-3)Gal(b1-4)[Fuc(a1-3)]GlcNAc(b1-3)Gal(b1-4)[Fuc(a1-3)]GlcNAc
# Summary of the method: as §1
# [17] = biological target: Gal(b1-4)GlcNAc(b1-3)GalNAc
# Summary of the method: as §1
# [18] = biological target: Gal(b1-4)GlcNAc(b1-3)[Fuc(a1-3)GlcNAc(b1-6)]Gal(b1-4)Glc
# Summary of the method: as §1
# [19] = biological target: Gal(b1-4)GlcNAc(b1-3)[Gal(b1-4)GlcNAc(b1-6)]Gal(b1-4)GlcNAc
# Summary of the method: as §1
# [20] = biological target: Gal(b1-4)GlcNAc(b1-3)[Gal(b1-4)GlcNAc(b1-6)]GalNAc
# Summary of the method: as §1
# [21] = biological target: Gal(b1-4)GlcNAc(b1-3)[GlcNAc(b1-6)]Gal(b1-4)GlcNAc
# Summary of the method: as §1
# [22] = biological target: Gal(b1-4)GlcNAc(b1-6)Gal(b1-4)GlcNAc
# Summary of the method: as §1
# [23] = biological target: Gal(b1-4)GlcNAc(b1-6)GalNAc
# Summary of the method: as §1
binder,measurement,setting,value
B1,glycan array binding signal (z-score),[1],-0.207
same,glycan array binding signal (z-score),[2],-0.252
same,glycan array binding signal (z-score),[3],1.89
same,glycan array binding signal (z-score),[4],-0.291
same,glycan array binding signal (z-score),[5],-0.245
same,glycan array binding signal (z-score),[6],-0.273
same,glycan array binding signal (z-score),[7],-0.279
same,glycan array binding signal (z-score),[8],-0.269
same,glycan array binding signal (z-score),[9],-0.275
same,glycan array binding signal (z-score),[10],-0.263
same,glycan array binding signal (z-score),[11],-0.21
same,glycan array binding signal (z-score),[12],-0.283
same,glycan array binding signal (z-score),[13],1.13
same,glycan array binding signal (z-score),[14],1.8
same,glycan array binding signal (z-score),[15],2.31
same,glycan array binding signal (z-score),[16],-0.181
same,glycan array binding signal (z-score),[17],-0.06
same,glycan array binding signal (z-score),[18],-0.003
same,glycan array binding signal (z-score),[19],-0.257
same,glycan array binding signal (z-score),[20],-0.172
same,glycan array binding signal (z-score),[21],0.342
same,glycan array binding signal (z-score),[22],-0.328
same,glycan array binding signal (z-score),[23],-0.196
